{
  "source": "PubChem BioAssay AID493208",
  "about": "(National Center for Advancing Translational Sciences (NCATS), 2011)",
  "note": "Among all 44,000 compounds or so, about 340 (0.77%) were called active. Roughly 5% stayed inconclusive and do not appear here. Calls come from the whole dose curve; as a rule, active = well fitted inhibition curve with a large enough effect; inconclusive = small, poorly fitted or top-dose-only effect; inactive = flat fitted curve, though single readings scatter. The list shows a part of the results.",
  "data": [
    {"assay": "Acumen qHTS Assay for Inhibitors of the mTORC1 Signaling Pathway in MEF (Tsc2-/-, p53-/-) Cells: Sytravon;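 note: plate controls were DMSO for no effect and rapamycin for full effect; nearly all actives have a fitted effect of over 50% in size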", "conditions": "phospho-rpS6 immunofluorescence/PI, 24 h; series mostly up to 38.3 µM; activity change, negative = inhibition: at the top concentration", "how_it_was_run": "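Tsc2-/-, p53-/- mouse embryonic fibroblasts (empty-vector line) exposed to compound 24 hrs at 37 C, fixed, immunostained for phospho-rpS6 and counterstained with propidium iodide. Acumen laser scanning gives % positive cells from Alexa 488/PI ratio, thresholded using 7.5 nM rapamycin; PI count gives viability.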", "values": [
      {"compound": "O=C(c1ccc(F)cc1)c1cn(Cc2ccccc2F)c2cc3c(cc2c1=O)OCCO3", "activity change, negative = inhibition": "inactive: 0.385%"},
      {"compound": "Cc1cccc(-c2nc(CN3CCCC(C(=O)N4CCN(c5cc(Cl)ccc5C)CC4)C3)c(C)o2)c1", "note": "(configuration not stated)", "activity change, negative = inhibition": "inactive: -15%"},
      {"compound": "Oc1ccc(Cl)cc1C1=Nc2ccccc2N=C(c2ccccc2)C1", "activity change, negative = inhibition": "inactive: 8.97%"},
      {"compound": "Cc1ccc(CSc2nc3cccnc3n2Cc2ccc(C(=O)NCc3ccco3)cc2)cc1", "activity change, negative = inhibition": "inactive: 0.244%"},
      {"compound": "Cc1ccc(-c2nc3c(c(SCc4ccc(Br)cc4)n2)Cc2c(CO)cnc(C)c2O3)cc1", "activity change, negative = inhibition": "inactive: 1.87%"},
      {"compound": "O=C(CSc1nc2c([nH]c3ccccc32)c(=O)n1-c1ccc(Cl)cc1)N1CCc2ccccc21", "activity change, negative = inhibition": "inactive: -17.6%"},
      {"compound": "CSc1cccc(NC(=O)c2cnn(-c3ccc(F)cc3)c2-n2cccc2)c1", "activity change, negative = inhibition": "inactive: -2.32%"},
      {"compound": "O=C(Cn1ncn2c(cc3sccc32)c1=O)NCCc1ccccc1", "activity change, negative = inhibition": "inactive: -2.03%"},
      {"compound": "COc1ccc(CCNC(=O)CCc2c(C)c3cc4c(C)c(C)oc4cc3oc2=O)cc1OC", "activity change, negative = inhibition": "inactive: 1.8%"},
      {"compound": "Cc1ccc2c(=O)cc(C(=O)Nc3ccc(S(=O)(=O)N(C)c4ccccc4)cc3)oc2c1C", "activity change, negative = inhibition": "inactive: 1.39%"},
      {"compound": "O=C(CSc1nc2ccccc2nc1Cc1ccc(Cl)cc1)Nc1ccc2c(c1)OCO2", "activity change, negative = inhibition": "inactive: -18.8%"},
      {"compound": "CC(=O)N1c2ccccc2C(=O)C1N1CCN(c2ccccc2F)CC1", "note": "(configuration not stated)", "activity change, negative = inhibition": "inactive: 8.02%"},
      {"compound": "CCC(C(=O)Nc1cccc(Cl)c1C)n1nc(C)c2sc3ccccc3c2c1=O", "note": "(configuration not stated)", "activity change, negative = inhibition": "inactive: -0.0926%"},
      {"compound": "COc1ccc(-c2noc(CN(C)S(=O)(=O)c3c(C)cc(C)cc3C)n2)cc1OC", "activity change, negative = inhibition": "inactive: -1.71%"},
      {"compound": "COc1ccc(C)cc1NC(=O)c1ccc(NS(=O)(=O)c2c(C)noc2C)cc1", "activity change, negative = inhibition": "inactive: -5.51%"},
      {"compound": "Cc1ccc(-c2nc(CCNC(=O)c3ccc(C)c(C)c3)cs2)cc1", "activity change, negative = inhibition": "inactive: -13.6%"},
      {"compound": "CCOC(=O)c1ccc(NC2=CC(c3ccc(OCC)cc3)N(c3ccc(C(=O)OCC)cc3)C2=O)cc1", "note": "(configuration not stated)", "activity change, negative = inhibition": "inactive: 8.17%"},
      {"compound": "CCOC(=O)c1cnc2cc(C(F)(F)F)ccc2c1Nc1cc(C)ccc1OC", "activity change, negative = inhibition": "inactive: -18.9%"},
      {"compound": "CCCCn1cc(S(=O)(=O)c2ccc(C)cc2)c(=O)c2cc(F)c(N3CCCCC3)cc21", "activity change, negative = inhibition": "inactive: -6.42%"},
      {"compound": "CCOc1ccccc1NC(=O)CSc1nnc2[nH]c(=O)cc(C)n12", "activity change, negative = inhibition": "inactive: 5.81%"},
      {"compound": "Cc1cc(O)c(C(c2ccccc2)N2CCCCC2)c(=O)n1Cc1ccco1", "note": "(configuration not stated)", "activity change, negative = inhibition": "inactive: 1.04%"},
      {"compound": "COc1ccccc1-c1nc2n(n1)C(c1ccccc1Cl)C(C(=O)Nc1cccnc1)=C(C)N2", "note": "(configuration not stated)", "activity change, negative = inhibition": "inactive: -7.26%"},
      {"compound": "CCSc1nn(CC(=O)Nc2cccc(CC)c2)c(N)c1S(=O)(=O)c1ccccc1", "activity change, negative = inhibition": "inactive: -4.05%"},
      {"compound": "COCCCNC(=O)C1CCN(Cc2cc3ccccc3n2Cc2ccccc2C)CC1", "activity change, negative = inhibition": "inactive: -12.3%"},
      {"compound": "Cc1oc(-c2ccc(Cl)cc2)nc1CN1CCCC(C(=O)NCCc2ccc(Cl)cc2)C1", "note": "(configuration not stated)", "activity change, negative = inhibition": "inactive: -3.31%"},
      {"compound": "Cc1ccc(S(=O)(=O)c2c(O)cc(C)c(NS(=O)(=O)c3ccc(Br)cc3)c2C)cc1", "activity change, negative = inhibition": "inactive: -2.02%"},
      {"compound": "COc1ccc(NC(=O)c2c(NCc3cccs3)sc3c2CCC(C)C3)c(OC)c1", "note": "(configuration not stated)", "activity change, negative = inhibition": "inactive: -20.2%"},
      {"compound": "O=C(CSc1nnc(-c2ccccc2Cl)o1)N1CCCc2ccccc21", "activity change, negative = inhibition": "inactive: 8.26%"},
      {"compound": "Cc1c(C(=O)N(Cc2ccccc2F)C2CCS(=O)(=O)C2)oc2ccccc12", "note": "(configuration not stated)", "activity change, negative = inhibition": "inactive: 3.54%"},
      {"compound": "CCOc1ccc(C(=O)c2cn(CC(=O)Nc3ccc(Cl)cc3)c3cc4c(cc3c2=O)OCO4)cc1", "activity change, negative = inhibition": "inactive: 2.16%"},
      {"compound": "COc1ccc(-c2nnc(SCC(=O)Nc3cccc(C(F)(F)F)c3)s2)cc1", "activity change, negative = inhibition": "inactive: -6.74%"},
      {"compound": "Cc1nn(C)c2c1c(C(F)(F)F)cc(=O)n2C(C)C(=O)Nc1ccccc1F", "note": "(configuration not stated)", "activity change, negative = inhibition": "inactive: -9.43%"},
      {"compound": "CC(=O)N1CCc2cc(Br)cc(S(=O)(=O)CCC(=O)N3CCN(c4ccc(F)cc4)CC3)c21", "activity change, negative = inhibition": "inactive: 0%"},
      {"compound": "COc1cc(/C=C/c2nc(C#N)c(N3CCN(C)CC3)o2)cc(OC)c1OC", "activity change, negative = inhibition": "inactive: 3.36%"},
      {"compound": "COc1cccc(NS(=O)(=O)c2ccc3c(c2)n(C)c(=O)n3C)c1", "activity change, negative = inhibition": "inactive: -24%"},
      {"compound": "COc1ccc(NC(=O)COCc2cc(-c3ccc4c(c3)OCO4)on2)cc1", "activity change, negative = inhibition": "inactive: 0.919%"},
      {"compound": "CN(C(=O)c1ccc2c(c1)N(Cc1cccc(Cl)c1)C(=O)c1ccccc1S2(=O)=O)C1CCCCC1", "activity change, negative = inhibition": "inactive: 0.868%"},
      {"compound": "CSc1cccc(NC(=O)C2CCN(c3nc4ccccc4[nH]3)CC2)c1", "activity change, negative = inhibition": "inactive: -15.7%"},
      {"compound": "Cc1ccc(Cn2c(SCc3ccc(C(=O)NC4CCCCC4)cc3)nc3ccncc32)cc1", "activity change, negative = inhibition": "inactive: -0.273%"},
      {"compound": "COCCNC(=O)c1cnc2sc(N3CCCCC3)nn2c1=O", "activity change, negative = inhibition": "inactive: 1.55%"},
      {"compound": "Cc1c(-c2nc(-c3ccccc3)no2)nnn1-c1ccc(F)c(Cl)c1", "activity change, negative = inhibition": "inactive: 6.16%"},
      {"compound": "COc1ccc(Cl)c2sc(NC(=O)c3ccc(S(=O)(=O)N4CCOCC4)cc3)nc12", "activity change, negative = inhibition": "inactive: 5.24%"},
      {"compound": "CCc1ccc(NC(=O)Cn2c(=O)n(-c3ccc(Cl)c(Cl)c3)c(=O)c3c(C)c(C)sc32)cc1", "activity change, negative = inhibition": "inactive: -11.5%"},
      {"compound": "CN(C(=O)CCc1nc(-c2ccccc2F)no1)c1ccc(Cl)cc1", "activity change, negative = inhibition": "inactive: -9.25%"},
      {"compound": "O=S(=O)(c1ccc(OC(F)(F)F)cc1)N1CCC(c2nnnn2-c2ccc(F)cc2)CC1", "activity change, negative = inhibition": "inactive: -1.3%"},
      {"compound": "Cc1ccc(NC(=O)c2nc(S(C)(=O)=O)ncc2N(Cc2ccc(C(C)(C)C)cc2)Cc2ccco2)cc1C", "activity change, negative = inhibition": "inactive: -3.12%"},
      {"compound": "COc1cc(C(=O)NCC(c2ccc3c(c2)OCO3)N2CCOCC2)cc(OC)c1OC", "note": "(configuration not stated)", "activity change, negative = inhibition": "inactive: 3.31%"}
    ]}
  ]
}
